# Laboratory results: patent publication US9872922B2, “Anti-EFNA4 antibody-drug conjugates” (PFIZER, INC., priority 2013, dated 2018)
# B1: huE22 (antibody)
# heavy: QVQLVQSGAEVKKPGASVKVSCKASGYTFTGYYIHWVRQAPGQGLEWMGWIYPGNFNTKYNERFKGRVTMTTDTSTSTAYMELRSLRSDDTAVYYCAREDGSPYYAMDYWGQGTSVTVSS[human IgG1 constant region omitted here]
# VL: DIVMTQTPLSLSVTPGQPASISCRSSQSLVHSNGNTFLYWYLQKPGQSPQLLIYRVSNRFSGVPDRFSGSGSGTDFTLKISRVEAEDVGVYYCFQATHVPWTFGGGTKVEIK
# B2: huE22-AcBut-CM: huE22 conjugated via lysine residues to AcBut-N-acetyl-γ-calicheamicin dimethyl hydrazide (AcBut-CM) (conjugate)
# heavy: B1 heavy
# light: DIVMTQTPLSLSVTPGQPASISCRSSQSLVHSNGNTFLYWYLQKPGQSPQLLIYRVSNRFSGVPDRFSGSGSGTDFTLKISRVEAEDVGVYYCFQATHVPWTFGGGTKVEIKRTVAAPSVFIFPPSDEQLKSGTASVVCLLNNFYPREAKVQWKVDNALQSGNSQESVTEQDSKDSTYSLSSTLTLSKADYEKHKVYACEVTHQGLSSPVTKSFNRGEC
# How the values were obtained:
# HEK293T-EFNA4 cells = test: Flow cytometry antibody binding (MCF), HEK293T-EFNA4; design: species or system human; settings: 10 μg/ml antibody; HEK293T-EFNA4, high expression of EFNA4
# Method: Binding of humanized anti-EFNA4 antibodies huE22 and huE47 was assessed on EFNA4 expressing cells by flow cytometry. Adherent cells were dissociated using TrpLE Express (GIBCO cat #12604-021), neutralized with cell culture media and counted. Cells were plated into a U-bottom 96-well plate (BD Falcon cat #353077) with 5×10e5 cells/100 μL media/well. The plate was centrifuged at 300×g, 5 minutes, 4° C. to pellet cells and the supernatant was discarded. All reagents were kept on ice for the following steps. Each pellet was resuspended in 100 μL primary humanized anti-EFNA4 antibody (huE22 or huE47) or negative control antibody at 10 μg/mL in 3% BSA in PBS. The plate was incubated on ice for 30 minutes. The plate was centrifuged and the cell pellets were washed in 200 μL 3% BSA in PBS. Each cell pellet was resuspended in 100 μL of R-phycoerythrin (PE)-conjugated goat anti-human IgG Fc fragment (Jackson ImmunoResearch cat #109-115-098) that had been diluted 1:50 in 3% BSA in PBS. […] The samples were analyzed by flow cytometry using 5 μL 7AAD (B-D Pharmingen cat #51-68981E) per sample as a viability stain.
# Antibody binding was measured in the manner described above for HEK293T parental cells, which express very low levels of EFNA4, and HEK293T-EFNA4 cells which are stable transfectants of HEK293T with a vector that enables high expression of human EFNA4.
# MX-1 = test: Flow cytometry antibody binding (MCF), MX-1; settings: 10 μg/ml antibody; MX-1, Breast
# Method: Binding of humanized anti-EFNA4 antibodies huE22 and huE47 was assessed on EFNA4 expressing cells by flow cytometry. Adherent cells were dissociated using TrpLE Express (GIBCO cat #12604-021), neutralized with cell culture media and counted. Cells were plated into a U-bottom 96-well plate (BD Falcon cat #353077) with 5×10e5 cells/100 μL media/well. The plate was centrifuged at 300×g, 5 minutes, 4° C. to pellet cells and the supernatant was discarded. All reagents were kept on ice for the following steps. Each pellet was resuspended in 100 μL primary humanized anti-EFNA4 antibody (huE22 or huE47) or negative control antibody at 10 μg/mL in 3% BSA in PBS. The plate was incubated on ice for 30 minutes. The plate was centrifuged and the cell pellets were washed in 200 μL 3% BSA in PBS. Each cell pellet was resuspended in 100 μL of R-phycoerythrin (PE)-conjugated goat anti-human IgG Fc fragment (Jackson ImmunoResearch cat #109-115-098) that had been diluted 1:50 in 3% BSA in PBS. The plate was incubated on ice for 30 minutes. […] The samples were analyzed by flow cytometry using 5 μL 7AAD (B-D Pharmingen cat #51-68981E) per sample as a viability stain.
# Endogenous EFNA4 expressing cancer cell lines were analyzed: Breast cell lines BT-483, HCC202 and MX-1, Chronic Lymphocytic Leukemia (CLL) cell line MEC1 and mantle cell lymphoma (MCL) cell line Z138.
# cynomolgus monkey EFNA4 = test: SPR (BIAcore 2000) binding constants, cynomolgus monkey EFNA4; settings: Cynomolgus monkey antigen
# Method: The binding constants of huE22 for human and cynomolgus monkey EFNA4 proteins were determined by surface plasmon resonance (SPR) using BIAcore 2000 (GE Healthcare) using recombinant EFNA4 extracellular domain that was fused to a histidine tag to facilitate purification. The results indicated high affinity of huE22 for both human and cynomolgus monkey EFNA4, see Table 12. The cynomolgus monkey EFNA4 protein sequence is highly homologous to human EFNA4 protein sequence, with 98% identity overall and 98% identity in the extracellular domain. […] The lack of huE22 binding to rat or mouse EFNA4 is likely explained by a non-conserved residue in the rat and mouse EFNA4 sequences within the defined huE22 epitope.
# 144580 = test: In vivo efficacy, 144580 breast tumor model (dosed intravenously); design: species or system mice
# OV124 = test: In vivo efficacy, OV124 ovarian cancer model; design: species or system NOD/SCID mice (human tumor PDX); settings: 0.27 mg/kg
# [1] = In vitro stability in rat plasma (ELISA total ADC / total antibody); assay type: in vitro ADME, Sprague Dawley rat; settings: 37° C.; for % total huE22 Ab remaining: Rat plasma, mean; for % huE22-AcBut-CM remaining: rat plasma, mean (n=3), total ADC by ELISA
# Method: Quantitation of the total ADC and total antibody, in plasma samples from pharmacokinetic studies in mice dosed with the ADC was determined using an enzyme-linked immunosorbent assay (ELISA) method. ELISA and liquid chromatography tandem mass spectrometry (LC-MS/MS) methods were also used to quantitate total ADC, total antibody and unconjugated payload from the exploratory toxicology studies in rat and monkey and in the in vitro plasma stability study with the ADC.
# Total antibody concentrations could not be determined for the total ADC incubations in human plasma due to ELISA limitations of detection for a human IgG, in human plasma containing human IgG. […] NC=Not calculated; SD=Standard deviation.
# [2] = In vitro stability in buffer control, PBS w/1% BSA; assay type: in vitro ADME; settings: for total ADC amount remaining / total antibody amount remaining: 168 hours at 37° C., PBS w/1% BSA, mean n=3; for % total huE22 Ab remaining: Buffer (PBS w/1% BSA), mean; for % total huE22 Ab remaining / % huE22-AcBut-CM remaining: 37° C.; for % huE22-AcBut-CM remaining: buffer (PBS w/1% BSA), mean (n=3), total ADC by ELISA
# BR25 = test: In vivo efficacy, BR25 TNBC Claudin-low tumor model; design: species or system mice; settings: 0.27 mg/kg
# BR17 = test: In vivo efficacy, BR17 HER2+ breast tumor model; design: species or system mice; settings: 0.27 mg/kg
molecule,measurement,setting,value
B1,Mean Channel Fluorescence (MCF),HEK293T-EFNA4 cells,1521
same,Mean Channel Fluorescent (MCF),MX-1,12.8
same,koff,cynomolgus monkey EFNA4,7.8E−03 s − 1
same,kon,cynomolgus monkey EFNA4,3.8E+06 M − 1s − 1
B2,% TGI,144580; 0.03 mg/kg,11% TGI
same,% TGI,144580; 0.1 mg/kg,55% TGI
same,"Regression (TTP, Days)",144580; 0.3 mg/kg,Regression (53) Days
same,"Regression (TTP, Days)",OV124,Regression (152) Days
same,% total huE22 Ab remaining,"[1]; 1 ug/mL, 0 hours",100%
same,% total huE22 Ab remaining,"[1]; 1 ug/mL, 8 hours",76.8%
same,% total huE22 Ab remaining,"[1]; 1 ug/mL, 24 hours",89.0%
same,% total huE22 Ab remaining,"[1]; 1 ug/mL, 48 hours",81.4%
same,% total huE22 Ab remaining,"[1]; 1 ug/mL, 72 hours",79.4%
same,% total huE22 Ab remaining,"[1]; 1 ug/mL, 168 hours",64.6%
same,% total huE22 Ab remaining,"[1]; 50 ug/mL, 0 hours",100%
same,% total huE22 Ab remaining,"[1]; 50 ug/mL, 8 hours",98.1%
same,% total huE22 Ab remaining,"[1]; 50 ug/mL, 24 hours",115%
same,% total huE22 Ab remaining,"[1]; 50 ug/mL, 48 hours",111%
same,% total huE22 Ab remaining,"[1]; 50 ug/mL, 72 hours",87.1%
same,% total huE22 Ab remaining,"[1]; 50 ug/mL, 168 hours",83.3%
same,% huE22-AcBut-CM remaining,"[1]; 1 ug/mL, 0 hours",100%
same,% huE22-AcBut-CM remaining,"[1]; 1 ug/mL, 8 hours",95.2%
same,% huE22-AcBut-CM remaining,"[1]; 1 ug/mL, 24 hours",93.0%
same,% huE22-AcBut-CM remaining,"[1]; 1 ug/mL, 48 hours",86.2%
same,% huE22-AcBut-CM remaining,"[1]; 1 ug/mL, 72 hours",81.0%
same,% huE22-AcBut-CM remaining,"[1]; 1 ug/mL, 168 hours",69.0%
same,% huE22-AcBut-CM remaining,"[1]; 50 ug/mL, 0 hours",100%
same,% huE22-AcBut-CM remaining,"[1]; 50 ug/mL, 8 hours",94.7%
same,% huE22-AcBut-CM remaining,"[1]; 50 ug/mL, 24 hours",97.3%
same,% huE22-AcBut-CM remaining,"[1]; 50 ug/mL, 48 hours",107.6%
same,% huE22-AcBut-CM remaining,"[1]; 50 ug/mL, 72 hours",96.9%
same,% huE22-AcBut-CM remaining,"[1]; 50 ug/mL, 168 hours",70.1%
same,total ADC amount remaining,[2]; 1 μg/mL,94.5%
same,total antibody amount remaining,[2]; 1 μg/mL,90.5%
same,total ADC amount remaining,[2]; 50 μg/mL,88.3%
same,total antibody amount remaining,[2]; 50 μg/mL,98.6%
same,% total huE22 Ab remaining,"[2]; 1 ug/mL, 0 hours",100%
same,% total huE22 Ab remaining,"[2]; 1 ug/mL, 8 hours",86.1%
same,% total huE22 Ab remaining,"[2]; 1 ug/mL, 24 hours",87.5%
same,% total huE22 Ab remaining,"[2]; 1 ug/mL, 48 hours",91.9%
same,% total huE22 Ab remaining,"[2]; 1 ug/mL, 72 hours",92.1%
same,% total huE22 Ab remaining,"[2]; 1 ug/mL, 168 hours",90.5%
same,% total huE22 Ab remaining,"[2]; 50 ug/mL, 0 hours",100%
same,% total huE22 Ab remaining,"[2]; 50 ug/mL, 8 hours",99.5%
same,% total huE22 Ab remaining,"[2]; 50 ug/mL, 24 hours",113%
same,% total huE22 Ab remaining,"[2]; 50 ug/mL, 48 hours",111%
same,% total huE22 Ab remaining,"[2]; 50 ug/mL, 72 hours",92.9%
same,% total huE22 Ab remaining,"[2]; 50 ug/mL, 168 hours",98.6%
same,% huE22-AcBut-CM remaining,"[2]; 1 ug/mL, 0 hours",100%
same,% huE22-AcBut-CM remaining,"[2]; 1 ug/mL, 8 hours",90.6%
same,% huE22-AcBut-CM remaining,"[2]; 50 ug/mL, 0 hours",100%
same,% huE22-AcBut-CM remaining,"[2]; 50 ug/mL, 168 hours",88.3%
same,% TGI,BR25,27% TGI
same,"Regression (TTP, Days) or % TGI",BR17,No Activity
